We go through 111 compounds from PubChem BioAssay AID488969 (Vanderbilt High Throughput Screening Facility, 2010).

SMILES strings stand for the structures. The full ranking holds about 110,000 compounds; the median of “z-score” is about -0.1, and the highest 2% start at about 2. The list shows a part of the results. Calls of active or inactive are those of the source.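 Rule for the calls: active = z-score in the third read window above 3 or below -3; inactive = the rest.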

In the assay the target is Metabotropic glutamate receptor 8 (Rattus norvegicus) (UniProt P70579). The experiment in a line: rat mGluR8 modulators via GIRK flux, primary screen, cell-based, thallium flux, HTS (AID 488969). Conditions: HEK293 rat mGluR8, GIRK (G protein-gated inwardly rectifying potassium channel) thallium flux, FluoZin2; at 10 µM; stronger effect = higher value.
Chain of UniProt P70579 (P70579 whole entry, looked up): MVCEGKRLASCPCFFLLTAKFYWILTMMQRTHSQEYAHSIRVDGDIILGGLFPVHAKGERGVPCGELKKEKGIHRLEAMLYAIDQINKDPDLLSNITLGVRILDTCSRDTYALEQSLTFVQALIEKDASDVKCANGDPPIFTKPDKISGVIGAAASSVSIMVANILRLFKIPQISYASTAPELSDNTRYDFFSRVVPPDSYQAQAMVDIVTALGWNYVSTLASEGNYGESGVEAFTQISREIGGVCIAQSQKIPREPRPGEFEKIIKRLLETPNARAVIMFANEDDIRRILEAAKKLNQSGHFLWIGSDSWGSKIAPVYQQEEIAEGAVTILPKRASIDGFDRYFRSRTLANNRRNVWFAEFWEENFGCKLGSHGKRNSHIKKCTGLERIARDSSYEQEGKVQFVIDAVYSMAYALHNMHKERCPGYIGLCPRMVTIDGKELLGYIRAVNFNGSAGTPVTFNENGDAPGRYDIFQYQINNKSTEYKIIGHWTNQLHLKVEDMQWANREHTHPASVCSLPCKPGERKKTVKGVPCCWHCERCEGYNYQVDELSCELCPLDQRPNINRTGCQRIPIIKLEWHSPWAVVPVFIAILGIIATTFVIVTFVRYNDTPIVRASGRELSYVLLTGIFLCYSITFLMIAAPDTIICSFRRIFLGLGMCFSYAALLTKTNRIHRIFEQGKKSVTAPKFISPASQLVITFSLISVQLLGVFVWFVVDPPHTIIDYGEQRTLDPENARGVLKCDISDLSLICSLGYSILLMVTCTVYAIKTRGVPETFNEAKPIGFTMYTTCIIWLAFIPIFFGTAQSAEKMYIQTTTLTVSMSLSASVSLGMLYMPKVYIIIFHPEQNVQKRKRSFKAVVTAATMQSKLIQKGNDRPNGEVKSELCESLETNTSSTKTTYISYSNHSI
As for `CCCS(=O)(=O)N1CCC(C(=O)N2CCC3(CC2)OCCO3)CC1`, the z-score turned out to be 0.119.
As to `CN1C(=O)C(=Cc2ccccc2Oc2ccc(Cl)cc2)C(=O)N(C)C1=O`, the z-score was -0.0352.
Under `COc1cccc(/C=C2\N=C(c3cncc(Br)c3)OC2=O)c1` stands -0.277; under `Cc1cccc(CN2CCN(CC(=O)N3CCC4(CC3)OCCO4)C2=O)c1`, 0.321; under `Cn1cccc1CNCCc1ccccc1`, active: 6.88.
Then `CC(C)N(CC(O)c1cccc([N+](=O)[O-])c1)C(C)C` (stereo unspecified), with -0.309.
In the case of `COc1ccccc1N1C(=O)NC(=O)C2(Cc3cc(C)ccc3N(C)C2)C1=O` (stereo unspecified), the z-score was -0.25.
Then `Cc1ccccc1-n1c(-c2ccco2)nc2ccccc2c1=O`, with 0.0349; and `O=c1c2ccccc2nc(CSc2ncnc3nc[nH]c23)n1-c1ccccc1`, with 0.961; and `O=C(Nc1ccc(Cl)cc1)Nc1nccs1`, with active: 8.34.
Then `Cc1nn(-c2ccccc2)c2c1CC1(C(=O)N(C)C(=O)N(C)C1=O)C1CCCCN21` (stereo unspecified), with -0.246.
Then `COc1nc2ccccc2c(=O)n1-c1ccc(Cl)cc1`, with -0.205; and `CCCNC(=O)c1c(N)n(Cc2ccc3c(c2)OCO3)c2nc3ccccc3nc12`, with -0.308; and `Cc1ccc(CNCCc2ccccc2F)cc1`, with 1.27.
Take `CCCC(=O)c1c(O)[nH]c(=O)[nH]c1=O`: the z-score was -0.209.
Then `Cc1ccc(C(=O)Nc2ccc(-n3ccnc3P(=O)(O)c3ccccc3)cc2)cc1`, with 0.158; and `COCC(C)OC(=O)c1c(N)n(Cc2ccco2)c2nc3ccccc3nc12` (stereo unspecified), with -2.53; and `CCC(C)N1C(=O)/C(=C/c2ccc3c(c2)CCN3CCCCl)C(=O)NC1=S` (stereo unspecified), with -0.358.
The compound `Cc1nn(Cc2ccccc2)c(Cl)c1C(=O)OCC(=O)Nc1cccc2ccccc12` returned a z-score of -0.000884.
Then `O=C(Cc1ccccc1)N1CCN(CC2CC=CCC2)CC1` (stereo unspecified), with -0.0963.
`O=C(COC(=O)c1ccccc1)Nc1ccc(Cl)cc1C(=O)c1ccccc1` came in with a z-score of -0.0641.
Then `Clc1cccc(C2NCCc3[nH]cnc32)c1` (stereo unspecified), with -0.0875; and `Nc1c(C(=O)NC2CCCC2)c2nc3ccccc3nc2n1CC1CCCO1` (stereo unspecified), with -0.689; and `CC(C(=O)c1ccccc1)N1C(=O)c2ccccc2C1=O` (stereo unspecified), with 0.0323.
Then `Cc1ccc(-n2c(O)c(/C=N/N3CCCCC3c3cccnc3)c(=O)[nH]c2=S)cc1` (stereo unspecified), with 0.0117; and `O=C1NC(=O)N(c2ccccc2F)C(=O)/C1=C/c1ccc(Sc2nc3ccccc3[nH]2)o1`, with -0.375; and `CCCCn1c(O)c(C(C)=NCc2ccc(F)cc2)c(=O)[nH]c1=O`, with -0.366.
Under `CCC1CCCCN1P(=O)(c1ccc(C)o1)C(C)(C)C` (stereo unspecified) stands -0.25; under `O=C(c1ccncc1)C12CN3CN(CN(C3)C1)C2`, 0.492.
The compound `CCC(=NCc1ccco1)c1c(O)n(-c2ccc(OC)cc2)c(=O)[nH]c1=O` showed a z-score of 0.129.
Then `N=C1c2ccccc2CN1NC(=O)C1CC1`, with 0.217.
`CSc1ncc(/C=C2/C(=O)NC(=O)N(c3ccc(C(C)C)cc3)C2=O)cn1` gave a z-score of -0.222.
Take `CCN(CC)CCN=C(C)c1c(O)n(-c2ccccc2OC)c(=O)[nH]c1=O`: the z-score was -0.111.
Then `COc1cccc(NC(=O)CN2CC(c3ccccc3)CC2=O)c1` (stereo unspecified), with 0.0992; and `CCCCC/C(=N\O)c1c[nH]c2ccccc12`, with -0.171; and `CC(C)NS(=O)(=O)c1ccc(OCC(=O)N2CCN(Cc3ccccc3)CC2)cc1`, with -0.0269.
In turn, `CCOC(=O)N(C)c1ccc(C(O)(C(=O)OC)C(F)(F)F)cc1` (stereo unspecified) showed a z-score of 0.24.
With `CCOC(=O)C1SC2(C(F)F)CC1(O)c1c(c(OC)c3occc3c1OC)O2` (stereo unspecified), the z-score was -2.67.
The compound `CN1C(=O)C(Cc2c[nH]c3ccccc23)C(=O)N(C)C1=O` showed a z-score of -1.06.
Compound `CCOC(=O)c1c(/N=C/c2c(O)n(-c3ccc(F)cc3)c(=S)[nH]c2=O)sc2c1CCCC2` came in with a z-score of -0.1.
The compound `O=C1NC(=O)N(CCNc2ncc(C(F)(F)F)cc2Cl)C(=O)C1/C=N/OCc1c(F)cccc1Cl` (stereo unspecified) displayed a z-score of 0.418.
Under `CC(C(N)=O)N1CC(c2ccccc2)CC1=O` (stereo unspecified) stands -0.494.
Compound `C=CCN1C(=O)NC(=O)/C(=C/c2cccn2C)C1=O` displayed a z-score of -0.314.
Compound `CC(C)(C)C(=O)OCC12CCC(O1)C1(C)C(=O)OCC21` (stereo unspecified) returned a z-score of -0.269.
Take `Cc1c(N=Nc2c(O)n(Cc3ccccc3)c(=O)[nH]c2=O)c(=O)n(-c2ccccc2)n1C`: the z-score is -0.116.
Consider `COc1ccc(NP(=O)(Nc2ccc(OC)cc2)Oc2ccccc2)cc1`, for which the z-score was -0.382.
Under `Cc1ccc(C(=O)C2(C)N(O)C(C)C(c3cccs3)=[N+]2[O-])cc1` (stereo unspecified) stands 0.0284.
`COc1cccc(-n2c(C)nc3ccccc3c2=O)c1` gave a z-score of -0.233.
Then `Cc1cccc(N2C(=O)CC(=O)NC2=O)c1`, with -0.345; and `CCOC(=O)C1C2NC(=O)N(Cc3ccccc3)C1(C)Oc1c(OC)cccc12` (stereo unspecified), with 0.0221.
Under `Cc1ccc(-c2nc3ccc(Cl)cc3n2OC(=O)N(C)C)cc1` stands -0.974; under `CC12CCC3C(CCC4C/C(=N/O)CCC43C)C1CCC2O` (stereo unspecified), 0.644.
Then `C=CCn1c(O)c(C(C)=NCc2ccco2)c(=O)[nH]c1=O`, with -0.278; and `O=C(CN1CCCCC1)c1cccc(Br)c1`, with -0.0516.
The compound `COc1ccc(C(=O)CN2CCOCC2)cc1F` came in with a z-score of -0.25.
In the case of `O=C(c1cc(-c2cccnc2)nc2ccc(Cl)cc12)N1CCC2(CC1)OCCO2`, the z-score was -0.431.
`Fc1ccc(C2=CCN(C(c3cccs3)c3nnnn3CCc3ccccc3)CC2)cc1` (stereo unspecified): the z-score is -0.0814.
Turning to `Cn1c2ccccc2c2c(C(=O)N3CCC4(CC3)OCCO4)cn(C3CCCC3)c(=O)c21`, the z-score was -0.349.
Then `O=c1[nH]c(=O)n(Cc2ccco2)c(O)c1C=NCc1cccs1`, with -0.754.
Compound `CC(=Nc1c(C)n(C)n(-c2ccccc2)c1=O)c1c(O)n(Cc2ccccc2)c(=O)[nH]c1=O` had a z-score of -0.729.
Take `COc1cccc(C2C([N+](=O)[O-])=C(N)Oc3c2c(=O)oc2ccccc32)c1` (stereo unspecified): the z-score was -0.342.
With `O=C1NC(=O)C2(C(=O)N1)C(c1ccc(F)cc1)NC(=S)NC2c1ccc(F)cc1` (stereo unspecified), the z-score was -0.889.
Compound `CCN(N=Nc1nonc1OC)c1nonc1OC` showed a z-score of 0.691.
Then `CCN(CC)CCNCC(=O)Nc1ccc(Cl)cc1C(=O)c1ccccc1`, with -0.352.
`CC(C)(C)c1ccc(CN2C(=O)CN=C(c3ccccc3)c3ccccc32)cc1`: the z-score is 0.366.
Under `N#Cc1cc2c(nc1SCC(=O)Nc1cc(Cl)ccc1Cl)C1CCN2CC1` stands -1.88.
Compound `CN(C)CCN=Cc1c(O)n(C2CCCCCC2)c(=O)[nH]c1=O` showed a z-score of 0.309.
Under `Fc1ccc(C(OCCN2CCCC2)c2ccc(Br)cc2)cc1` (stereo unspecified) stands 0.477; under `O=[N+]([O-])NC1=NCN(Cc2ccco2)CN1Cc1ccco1`, -0.0646; under `CC/C(=N\N1CCCCCC1)c1c(O)n(-c2ccccc2C)c(=O)[nH]c1=O`, -0.69.
Regarding `NC(=O)c1ccc(N=Nc2c(O)[nH]c(=O)[nH]c2=O)cc1`, the z-score is -0.564.
Under `Fc1ccccc1CCNCc1cccc(Cl)c1Cl` stands -0.132; under `CCc1ccc(N2C(=O)NC(=O)C(CCc3ccncc3)(CCc3ccncc3)C2=O)cc1`, -0.212.
Then `COP(=O)(OC)C(Nc1ccccn1)c1ccccc1` (stereo unspecified), with -0.308; and `Cc1oc(-c2cccs2)nc1CSCC(=O)N1CCC2(CC1)OCCO2`, with 0.655; and `CCOP(=O)(OCC)C(NC(=O)c1ccccc1Cl)=C(Cl)Cl`, with -0.202.
Then `CC(=O)C1=C(C)OC(N)=C(C(=O)OC(C)C)C12C(=O)Nc1ccccc12` (stereo unspecified), with -0.361; and `CC(C)COP(=O)(OCC(C)C)C(O)c1cccnc1` (stereo unspecified), with 0.0509; and `COc1ccc(N2CCN(CCCN)CC2)cc1`, with 0.403.
Take `CCOc1ccc(N2C(=O)NC(=O)/C(=C\c3ccc(N4CCCCC4)o3)C2=O)cc1`: the z-score is -0.492.
Under `OC(c1ccc(F)cc1)(c1ccc(F)cc1)[C@@H]1CCCN1` stands 0.177.
With `C=CCn1c(O)c(C(C)=Nc2ccc(N(C)C)cc2)c(=O)[nH]c1=O`, the z-score is -1.2.
Then `C[N+]12CN3CN(CN(C3)C1)C2`, with -1.16.
For `O=C(CSC1c2ccccc2-c2ccccc21)N/N=C/c1ccccc1`, the z-score was 0.0284.
Under `O=C(O)c1c[nH]c2ccc(S(=O)(=O)N(CCCl)CCCl)cc12` stands 0.564.
Then `CC(=NCCN1CCCCC1)c1c(O)n(Cc2ccccc2)c(=O)[nH]c1=O`, with -0.14.
`C=Cn1c(P(=S)(N2CCOCC2)N2CCOCC2)cc2c1CCCC2` displayed a z-score of -0.597.
Take `Clc1cccc(N2CCNCC2)c1Cl`: the z-score worked out at 0.654.
In turn, `CCCc1nc2ccc(Br)cc2c(=O)n1-c1ccc([N+](=O)[O-])c(C(F)(F)F)c1` displayed a z-score of -0.653.
`O=C(N/N=C/c1c(O)n(CCC2=CCCCC2)c(=S)[nH]c1=O)c1ccccc1` displayed a z-score of -0.132.
Under `CCN(CCNc1ccc([N+](=O)[O-])c2cccnc12)S(=O)(=O)c1ccccc1` stands -0.00677; under `Cc1ccc(N2C(=O)NC(=O)C(CCc3ccccn3)(Cc3cccc(Cl)c3Cl)C2=O)cc1` (stereo unspecified), -0.463.
Then `CCCCOP(=O)(OCCCC)/C(C#N)=C(/C)O`, with 0.459.
Then `Cc1nc(Cl)sc1C(=O)Nc1ccc2ccccc2c1`, with 0.257; and `COc1ccc(-n2c(SC)nc3ccccc3c2=O)cc1`, with -0.741.
`CCCC1(CCC)C(=O)NC(=Nc2ccccc2)NC1=O`: the z-score came out at 0.112.
Then `O=C(COC(=O)Cc1ccccc1)Nc1cc(S(=O)(=O)N2CCOCC2)ccc1N1CCCC1`, with -0.156; and `Oc1ccc(/C=N/NP(=S)(c2ccccc2)c2ccccc2)cc1O`, with 1.01; and `COc1ccccc1CCNC1CCC(C(C)(C)C)CC1` (stereo unspecified), with -0.494.
Under `COc1cc(CN2CC3CC(C2)c2cccc(=O)n2C3)cc(OC)c1OC` (stereo unspecified) stands -1.25; under `CN1CCN(CCC(C#N)(c2ccccc2)c2ccccc2)CC1`, 0.18.
Then `CCOP(=S)(NN(Cc1ccccc1)C(=O)c1ccccc1)OCC`, with -0.0699; and `O=C(NCCCN1CCOCC1)C(Cl)(Cl)Cl`, with -0.223; and `N=C1c2ccccc2CN1NC(=O)c1ccc(F)cc1`, with -0.146.
Turning to `O=c1c2ccccc2nc(N2CCCC2)n1-c1ccc(Cl)cc1`, the z-score is -0.906.
Consider `O=C(CN1CCOCC1)c1ccc2cc[nH]c2c1`, for which the z-score turned out to be 0.312.
In the case of `CCn1c(=N)n(Cc2ccccc2F)c2ccccc21`, the z-score was determined as 0.599.
Then `N=C1c2ccccc2CN1NC(=O)c1ccc(Cl)cc1`, with -0.179; and `O=C1NC(=O)N(c2ccccc2)C(=O)/C1=C\c1ccc2c3c(cccc13)CC2`, with 0.108.
Then `O=C(Nc1ccc(F)cc1)N1CC2CC(C1)c1cccc(=O)n1C2` (stereo unspecified), with -0.635; and `COc1ccc(-n2c(Cc3cccc([N+](=O)[O-])c3)nc3ccccc3c2=O)cc1`, with -0.326.
